# According to the supplement of paper PMC8728848:
# The list shows a part of the results.
# Experiments:
# Assay in all cases: glycan array binding signal (z-score within array); higher = stronger binding
# Conditions in all cases: glycan notation: IUPAC condensed, linker removed; mutation: E227A
# Fuc(a1-2)Gal = target: Fuc(a1-2)Gal
# In short: (§1)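 Glycan array data came from 3228 arrays in the Consortium for Functional Glycomics database, and only arrays with an available protein sequence were kept. Glycan names were put into IUPAC-condensed notation, and columns mapping to the same glycan were averaged. The binding signal is a within-array Z-score, averaged across arrays of one protein sequence run at different concentrations or buffers and across linkers. A negative Z-score can be read as non-binding.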
# Fuc(a1-2)Gal(b1-3)GalNAc = target: Fuc(a1-2)Gal(b1-3)GalNAc
# In short: as §1
# [1] = target: Fuc(a1-2)Gal(b1-3)GalNAc(a1-3)[Fuc(a1-2)]Gal(b1-4)Glc
# In short: as §1
# [2] = target: Fuc(a1-2)Gal(b1-3)GalNAc(a1-3)[Fuc(a1-2)]Gal(b1-4)GlcNAc
# In short: as §1
# [3] = target: Fuc(a1-2)Gal(b1-3)GalNAc(b1-3)Gal
# In short: as §1
# [4] = target: Fuc(a1-2)Gal(b1-3)GalNAc(b1-3)Gal(a1-4)Gal(b1-4)Glc
# In short: as §1
# [5] = target: Fuc(a1-2)Gal(b1-3)GalNAc(b1-4)[Neu5Ac(a2-3)]Gal(b1-4)Glc
# In short: as §1
# Fuc(a1-2)Gal(b1-3)GlcNAc = target: Fuc(a1-2)Gal(b1-3)GlcNAc
# In short: as §1
# [6] = target: Fuc(a1-2)Gal(b1-3)GlcNAc(b1-2)Man(a1-3)[Fuc(a1-2)Gal(b1-3)GlcNAc(b1-2)Man(a1-6)]Man(b1-4)GlcNAc(b1-4)GlcNAc
# In short: as §1
# [7] = target: Fuc(a1-2)Gal(b1-3)GlcNAc(b1-2)Man(a1-3)[Fuc(a1-2)Gal(b1-3)GlcNAc(b1-2)Man(a1-6)]Man(b1-4)GlcNAc(b1-4)[Fuc(a1-6)]GlcNAc
# In short: as §1
# [8] = target: Fuc(a1-2)Gal(b1-3)GlcNAc(b1-3)Gal(b1-4)Glc
# In short: as §1
# [9] = target: Fuc(a1-2)Gal(b1-3)GlcNAc(b1-3)GalNAc
# In short: as §1
# [10] = target: Fuc(a1-2)Gal(b1-3)GlcNAc(b1-3)[Fuc(a1-2)Gal(b1-3)GlcNAc(b1-6)]GalNAc
# In short: as §1
# [11] = target: Fuc(a1-2)Gal(b1-3)GlcNAc(b1-3)[Gal(b1-4)GlcNAc(b1-6)]Gal(b1-4)Glc
# In short: as §1
# [12] = target: Fuc(a1-2)Gal(b1-3)GlcNAc(b1-3)[Neu5Ac(a2-6)Gal(b1-4)GlcNAc(b1-6)]Gal(b1-4)Glc
# In short: as §1
# [13] = target: Fuc(a1-2)Gal(b1-3)GlcNAc6S
# In short: as §1
# [14] = target: Fuc(a1-2)Gal(b1-3)[Fuc(a1-4)]GlcNAc
# In short: as §1
# [15] = target: Fuc(a1-2)Gal(b1-3)[Fuc(a1-4)]GlcNAc(b1-2)Man(a1-3)[Fuc(a1-2)Gal(b1-3)[Fuc(a1-4)]GlcNAc(b1-2)Man(a1-3)]Man(b1-4)GlcNAc(b1-4)GlcNAc
# In short: as §1
# [16] = target: Fuc(a1-2)Gal(b1-3)[Fuc(a1-4)]GlcNAc(b1-2)Man(a1-3)[Fuc(a1-2)Gal(b1-3)[Fuc(a1-4)]GlcNAc(b1-2)Man(a1-6)]Man(b1-4)GlcNAc(b1-4)[Fuc(a1-6)]GlcNAc(b1-4)[Fuc(a1-6)]GlcNAc
# In short: as §1
# [17] = target: Fuc(a1-2)Gal(b1-3)[Fuc(a1-4)]GlcNAc(b1-3)[Fuc(a1-3)[Gal(b1-4)]GlcNAc(b1-6)]Gal(b1-4)Glc
# In short: as §1
# [18] = target: Fuc(a1-2)Gal(b1-3)[Fuc(a1-4)]GlcNAc(b1-3)[Gal(b1-4)GlcNAc(b1-6)]Gal(b1-4)Glc
# In short: as §1
# [19] = target: Fuc(a1-2)Gal(b1-4)Fuc(a1-3)]GlcNAc(b1-2)Man(a1-3)[Fuc(a1-2)Gal(b1-4)[Fuc(a1-3)]GlcNAc(b1-2)Man(a1-6)]Man(b1-4)GlcNAc(b1-4)GlcNAc
# In short: as §1
# Fuc(a1-2)Gal(b1-4)Glc = target: Fuc(a1-2)Gal(b1-4)Glc
# In short: as §1
# Fuc(a1-2)Gal(b1-4)Glc6S = target: Fuc(a1-2)Gal(b1-4)Glc6S
# In short: as §1
# Fuc(a1-2)Gal(b1-4)GlcNAc = target: Fuc(a1-2)Gal(b1-4)GlcNAc
# In short: as §1
# [20] = target: Fuc(a1-2)Gal(b1-4)GlcNAc(b1-2)Man
# In short: as §1
# [21] = target: Fuc(a1-2)Gal(b1-4)GlcNAc(b1-2)Man(a1-3)[Fuc(a1-2)Gal(b1-4)GlcNAc(b1-2)Man(a1-6)]Man(b1-4)GlcNAc(b1-4)GlcNAc
# In short: as §1
# [22] = target: Fuc(a1-2)Gal(b1-4)GlcNAc(b1-2)Man(a1-3)[Fuc(a1-2)Gal(b1-4)GlcNAc(b1-2)Man(a1-6)]Man(b1-4)GlcNAc(b1-4)[Fuc(a1-6)]GlcNAc
# In short: as §1
# [23] = target: Fuc(a1-2)Gal(b1-4)GlcNAc(b1-2)[Fuc(a1-2)Gal(b1-4)GlcNAc(b1-4)]Man(a1-3)[Fuc(a1-2)Gal(b1-4)GlcNAc(b1-2)Man(a1-6)]Man(b1-4)GlcNAc(b1-4)GlcNAc
# In short: as §1
# [24] = target: Fuc(a1-2)Gal(b1-4)GlcNAc(b1-3)Gal(b1-4)GlcNAc
# In short: as §1
# [25] = target: Fuc(a1-2)Gal(b1-4)GlcNAc(b1-3)Gal(b1-4)GlcNAc(b1-2)Man(a1-3)[Fuc(a1-2)Gal(b1-4)GlcNAc(b1-3)Gal(b1-4)GlcNAc(b1-2)Man(a1-6)]Man(b1-4)GlcNAc(b1-4)GlcNAc
# In short: as §1
# [26] = target: Fuc(a1-2)Gal(b1-4)GlcNAc(b1-3)Gal(b1-4)GlcNAc(b1-3)Gal(b1-4)GlcNAc
# In short: as §1
# [27] = target: Fuc(a1-2)Gal(b1-4)GlcNAc(b1-3)GalNAc
# In short: as §1
# [28] = target: Fuc(a1-2)Gal(b1-4)GlcNAc(b1-3)[Fuc(a1-2)Gal(b1-4)GlcNAc(b1-6)]GalNAc
# In short: as §1
# [29] = target: Fuc(a1-2)Gal(b1-4)GlcNAc(b1-3)[Fuc(a1-3)[Gal(b1-4)]GlcNAc(b1-6)]Gal(b1-4)Glc
# In short: as §1
# [30] = target: Fuc(a1-2)Gal(b1-4)GlcNAc(b1-6)GalNAc
# In short: as §1
# [31] = target: Fuc(a1-2)Gal(b1-4)GlcNAc6S
# In short: as §1
# [32] = target: Fuc(a1-2)Gal(b1-4)[Fuc(a1-3)]GlcNAc
# In short: as §1
# [33] = target: Fuc(a1-2)Gal(b1-4)[Fuc(a1-3)]GlcNAc(b1-2)Man(a1-3)[Fuc(a1-2)Gal(b1-4)[Fuc(a1-3)]GlcNAc(b1-2)Man(a1-6)]Man(b1-4)GlcNAc(b1-4)[Fuc(a1-6)]GlcNAc
# In short: as §1
# [34] = target: Fuc(a1-2)Gal(b1-4)[Fuc(a1-3)]GlcNAc(b1-2)[Fuc(a1-2)Gal(b1-4)[Fuc(a1-3)]GlcNAc(b1-4)]Man(a1-3)[Fuc(a1-2)Gal(b1-4)[Fuc(a1-3)]GlcNAc(b1-2)Man(a1-6)]Man(b1-4)GlcNAc(b1-4)GlcNAc
# In short: as §1
# [35] = target: Fuc(a1-2)Gal(b1-4)[Fuc(a1-3)]GlcNAc(b1-3)Gal(b1-4)[Fuc(a1-3)]GlcNAc
# In short: as §1
# [36] = target: Fuc(a1-2)Gal(b1-4)[Fuc(a1-3)]GlcNAc(b1-3)Gal(b1-4)[Fuc(a1-3)]GlcNAc(b1-3)Gal(b1-4)[Fuc(a1-3)]GlcNAc
# In short: as §1
# [37] = target: Fuc(a1-2)Gal(b1-4)[Fuc(a1-3)]GlcNAc(b1-3)GalNAc
# In short: as §1
# [38] = target: Fuc(a1-2)Gal(b1-4)[Fuc(a1-3)]GlcNAc(b1-3)[Neu5Ac(a2-6)Gal(b1-4)GlcNAc(b1-6)]Gal(b1-4)Glc
# In short: as §1
# [39] = target: Fuc(a1-2)Gal3S(b1-4)GlcNAc
# In short: as §1
binder,measurement,setting,value
"Epa1-NP-mutant-E227A (Candida glabrata), Q6VBJ0 (protein) MILNPALFLNKCVCIYTTLILLLLTNGGYATSSNDISLASKDPTTFPLGCSPDITTPKKGLSMELYSYDFRKKGSYPCWDAAYLDPNYPRTGYKSHRLLAKVDGVTGNINFYYHATKGCTPQLGHLPASYNYPKPLTMTNFTMLLYGYFRPKVTGFHTFTISADDLLFVNFGAGNAFDCCRRDSSADHFGNYQAYAIWGSKTAKDELTVHLDAGVYYPIRLFYNNRAYDGALSFTFKTESNENTVSDFSEYFFSLDDTEEGCPGLISYDSSCASVKTSKIIGIDYHTETPNENLVPITKTIYHLGIPCTGTTTTPLCGSGFYDPLANKCVTINTSSTSSVTKTTSHTTSKEVSFHSSISSQKTLIPKSIPSPYGPIKSQSIPTEMETSSEISSSEYAFSDVISTPSHSPYTKKHSSLNSSSYTSTVIHSLTSYSISQGIFSTSLSEQNITSKSSTDKFSTATSMSNNITQSSIIISQFSTNNENYTTTSMHTSSDKISTETLNNSISTTTSILFSNSSTILKNNTTIISSDKDTHYHPVNPTIVCSTNKTEIICASITQPSISNSNNHWSSSVLKFNSTTVRSTLPSSAGSNETSINVPFSSSTESNTSTSSTSTSNSKMVRSTLPSSAGSNETSISVPFSSSTESNTSTSSTSTSNSKMVRSTLPSSAGSNETSINVPFSSSTESNTSTSSTSTSNSKTVRSTPFSSAGIIMTSLSQRNNKSASSYASSNSKCYNTADSCRKVHSTPSYLLTSSYTSEGVDYDCSLVSTKLKINDTNCVNNKHTTKSCLKTSVTTTIPTLEIKTARKSSSNTIGLHSYPTSSPNKSISSAPIIGYISSFKTIKTASPSYQTSDLTTITTITSLNNPGSTAVENTHESNDKSRKTSSNDISSKHSVIKETKDAVESSNKSHQTNTLKCSSIIIASSSHNSYESLGGTTLTLTLSKVYSPQNNDTLPFLEISEVNPSRTVLPESSKMMQYLTSTEERNKTARNTIATNIVSISTFHFEGEGNAIRMGYTQLLLMLIGIIVMNIGT",glycan array binding signal (z-score),Fuc(a1-2)Gal,-0.193
same,glycan array binding signal (z-score),Fuc(a1-2)Gal(b1-3)GalNAc,-0.197
same,glycan array binding signal (z-score),[1],-0.214
same,glycan array binding signal (z-score),[2],-0.199
same,glycan array binding signal (z-score),[3],-0.221
same,glycan array binding signal (z-score),[4],-0.198
same,glycan array binding signal (z-score),[5],-0.211
same,glycan array binding signal (z-score),Fuc(a1-2)Gal(b1-3)GlcNAc,-0.21
same,glycan array binding signal (z-score),[6],-0.184
same,glycan array binding signal (z-score),[7],-0.163
same,glycan array binding signal (z-score),[8],-0.204
same,glycan array binding signal (z-score),[9],-0.217
same,glycan array binding signal (z-score),[10],-0.15
same,glycan array binding signal (z-score),[11],-0.138
same,glycan array binding signal (z-score),[12],-0.203
same,glycan array binding signal (z-score),[13],-0.195
same,glycan array binding signal (z-score),[14],-0.226
same,glycan array binding signal (z-score),[15],-0.162
same,glycan array binding signal (z-score),[16],-0.174
same,glycan array binding signal (z-score),[17],-0.272
same,glycan array binding signal (z-score),[18],-0.17
same,glycan array binding signal (z-score),[19],-0.184
same,glycan array binding signal (z-score),Fuc(a1-2)Gal(b1-4)Glc,-0.184
same,glycan array binding signal (z-score),Fuc(a1-2)Gal(b1-4)Glc6S,-0.121
same,glycan array binding signal (z-score),Fuc(a1-2)Gal(b1-4)GlcNAc,-0.188
same,glycan array binding signal (z-score),[20],-0.182
same,glycan array binding signal (z-score),[21],-0.148
same,glycan array binding signal (z-score),[22],-0.171
same,glycan array binding signal (z-score),[23],-0.195
same,glycan array binding signal (z-score),[24],-0.23
same,glycan array binding signal (z-score),[25],-0.185
same,glycan array binding signal (z-score),[26],-0.186
same,glycan array binding signal (z-score),[27],-0.159
same,glycan array binding signal (z-score),[28],-0.193
same,glycan array binding signal (z-score),[29],-0.219
same,glycan array binding signal (z-score),[30],-0.184
same,glycan array binding signal (z-score),[31],-0.104
same,glycan array binding signal (z-score),[32],-0.209
same,glycan array binding signal (z-score),[33],-0.178
same,glycan array binding signal (z-score),[34],-0.179
same,glycan array binding signal (z-score),[35],-0.141
same,glycan array binding signal (z-score),[36],-0.216
same,glycan array binding signal (z-score),[37],-0.16
same,glycan array binding signal (z-score),[38],-0.217
same,glycan array binding signal (z-score),[39],0.669
